# Measurements published in the supplement of paper PMC4604168 (melanoma cell lines).
# Some of the results follow. Single values are uncertain, as repeats are few or missing.
# Key:
# Assay in all cases: cell count relative to DMSO control; melanoma cells; higher = more viable cells
# [1] = system: 501Mel; conditions: library dose: standard library concentration; 72 h
# [2] = system: A101D; conditions: library dose: standard library concentration; 72 h
# [3] = system: A2058; conditions: library dose: standard library concentration; 72 h
# [4] = system: A375; conditions: library dose: standard library concentration; 72 h
# [5] = system: MZ2-MEL; conditions: library dose: low library concentration; 72 h
# [6] = system: MeWo; conditions: library dose: low library concentration; 72 h
# [7] = system: RPMI7951; conditions: library dose: low library concentration; 72 h
# [8] = system: RVH-421; conditions: library dose: low library concentration; 72 h
# [9] = system: SkMel28; conditions: library dose: low library concentration; 72 h
# [10] = system: SkMel30; conditions: library dose: low library concentration; 72 h
# [11] = system: UACC62; conditions: library dose: low library concentration; 72 h
# [12] = system: WM115; conditions: library dose: low library concentration; 72 h
# [13] = system: WM1716; conditions: library dose: low library concentration; 72 h
# [14] = system: WM1745; conditions: library dose: low library concentration; 72 h
# [15] = system: WM3526; conditions: library dose: low library concentration; 72 h
# [16] = system: WM3619; conditions: library dose: low library concentration; 72 h
# [17] = system: WM451Lu; conditions: library dose: low library concentration; 72 h
# [18] = system: SkMel5; conditions: library dose: low library concentration; 72 h
# [19] = system: UACC257; conditions: library dose: low library concentration; 72 h
smiles,measurement,setting,value
"NC1(c2ccc(-c3nc4ccn5c(=O)[nH]nc5c4cc3-c3ccccc3)cc2)CCC1 + C/C(O)=C(\C#N)C(=O)Nc1cc(Br)ccc1Br [LFM-A13] (first compound 2 µM, partner dose 10 µM)",cell count,[1],65.2%
same,cell count,[2],111%
same,cell count,[3],83.4%
same,cell count,[4],98.9%
"O=C(/C=C/c1cccnc1)NCCCCC1CCN(C(=O)c2ccccc2)CC1 + C[C@]12O[C@H](C[C@]1(O)CO)n1c3ccccc3c3c4c(c5c6ccccc6n2c5c31)CNC4=O [Lestaurtinib] (first compound 0.01 µM, partner dose 0.004 µM)",cell count,[5],44.8%
same,cell count,[6],89.6%
same,cell count,[7],94.2%
same,cell count,[8],53.4%
same,cell count,[9],74.4%
same,cell count,[10],88.1%
same,cell count,[11],106%
same,cell count,[12],91%
same,cell count,[13],101%
same,cell count,[14],97.8%
same,cell count,[15],89.3%
same,cell count,[16],65.1%
same,cell count,[17],133%
"CN(NC(=O)CC(=O)NN(C)C(=S)c1ccccc1)C(=S)c1ccccc1 + Cc1cc(SCc2sc(-c3ccc(C(F)(F)F)c(F)c3)nc2C)ccc1OCC(=O)O [GW0742] (first compound 0.006 µM, partner dose 2 µM)",cell count,[5],101%
same,cell count,[7],117%
same,cell count,[8],109%
same,cell count,[9],114%
same,cell count,[10],72.3%
same,cell count,[18],105%
same,cell count,[19],124%
same,cell count,[11],87.1%
same,cell count,[12],98.3%
same,cell count,[13],90.7%
same,cell count,[14],87.4%
same,cell count,[15],98.8%
same,cell count,[16],112%
same,cell count,[17],123%
"C[C@@H](Oc1cc(-c2cnn(C3CCNCC3)c2)cnc1N)c1c(Cl)ccc(F)c1Cl [Crizotinib] + Cc1cc(SCc2sc(-c3ccc(C(F)(F)F)c(F)c3)nc2C)ccc1OCC(=O)O [GW0742] (first compound 1 µM, partner dose 10 µM)",cell count,[1],80.1%
same,cell count,[2],69.1%
same,cell count,[3],82.8%
same,cell count,[4],138%
"Cc1ccc(Nc2nccc(N(C)c3ccc4c(C)n(C)nc4c3)n2)cc1S(N)(=O)=O [Pazopanib] + C[C@]12O[C@H](C[C@]1(O)CO)n1c3ccccc3c3c4c(c5c6ccccc6n2c5c31)CNC4=O [Lestaurtinib] (first compound 0.4 µM, partner dose 0.004 µM)",cell count,[5],77.7%
same,cell count,[6],108%
same,cell count,[7],95.3%
same,cell count,[8],88.9%
same,cell count,[9],83.3%
same,cell count,[10],81.7%
same,cell count,[11],77.9%
same,cell count,[12],88.2%
same,cell count,[13],85.6%
same,cell count,[14],82.9%
same,cell count,[15],89%
same,cell count,[16],99.2%
same,cell count,[17],85%
"CCc1ccc(CCOc2ccc(CC3SC(=O)NC3=O)cc2)nc1 (stereo not given) [pioglitazone] + O=C(Oc1ccc([N+](=O)[O-])cc1)N1CCC(C(O)(c2ccc3c(c2)OCO3)c2ccc3c(c2)OCO3)CC1 [JZL184] (first compound 10 µM, partner dose 5 µM)",cell count,[1],94.1%
same,cell count,[2],74.8%
same,cell count,[3],97.2%
same,cell count,[4],102%
"N#Cc1c(O)c2c(-c3ccc(-c4ccccc4O)cc3)csc2[nH]c1=O + C/C(O)=C(\C#N)C(=O)Nc1cc(Br)ccc1Br [LFM-A13] (first compound 10 µM, partner dose 10 µM)",cell count,[1],64.6%
same,cell count,[2],88.7%
same,cell count,[3],94.3%
same,cell count,[4],84.7%
"CC1(C)NC(=O)N(c2ccc([N+](=O)[O-])c(C(F)(F)F)c2)C1=O [nilutamide] + C/C(O)=C(\C#N)C(=O)Nc1cc(Br)ccc1Br [LFM-A13] (first compound 5 µM, partner dose 10 µM)",cell count,[1],77.7%
same,cell count,[2],120%
same,cell count,[3],108%
same,cell count,[4],93.3%
